Experimental data reported in the RNAGym collection of RNA variant scans (doi:10.1093/nar/gkz1192).
The source gives no read counts; variants with many changes may rest on few reads.

B1: CPEB3 Ribozyme (parent)
chain: UAACAGGGGGCCACAGCAGAAGCGUUCACGUCGCAGCCCCUGUCAGAUUCUGGUGAAUCUGCGAAUUCUGCUGUAUAUCUC

Variants of: B1
Test: self-cleavage, relative activity (ratio to wild type); higher = more cleavage; in vitro, sequencing
Outline: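 CPEB3 self-cleaving ribozyme mutant libraries were made by rounds of error-prone PCR, barcoded, and transcribed in vitro with T7 RNA polymerase for 5 hours at 37°C. Cleavage occurred during transcription and a 15 min DNase I step before EDTA stop. RNAs were reverse transcribed with template switching and Illumina-sequenced, with DNA sequencing mapping barcodes to variants. Relative activity is the variant's cleaved/total read fraction divided by wild type's (minimum 5 reads), averaged across three batches.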

Row | Variant | self-cleavage
1 | G33A A56G U80C | 0.1
2 | G33A A57G A77G | 0.21
3 | G33A A57G U60A U80C | 0.38
4 | G33A A57G U66C U67C U74C U76A | 0.08
5 | G33A A57G U69C | 0.19
6 | G33A A57U U72A A75U | 0.13
7 | G33A C34U U51A U78C | 0.05
8 | G33A C37G A57G | 0.11
9 | G33A C38U C44U A56U A64G | 0.1
10 | G33A C39A U43C U69C | 0.17
11 | G33A C40A G42U G63A A65U | 0.09
12 | G33A C40U U72A | 0.09
13 | G33A C50A A77U | 0.26
14 | G33A G46A U66C | 0.1
15 | G33A G52A U54G | 0.23
16 | G33A G55U G63U U66C | 0.06
17 | G33A U41A A45G U60C C71U | 0.06
18 | G33A U41A U43A U49C C59U U76A | 0.04
19 | G33A U41C A45C U80C | 0.07
20 | G33A U41C U51C A56G U58C U72A | 0.07
21 | G33A U41C U51C A77G | 0.12
22 | G33A U41G A56G | 0.38
23 | G33A U41G U43A U72C | 0.15
24 | G33A U43A A64U U66C | 0.19

Row | Variant | self-cleavage
25 | G33A U43A U66C | 0.28
26 | G33A U43C A45G U49C C62U U72A | 0.06
27 | G33A U43C A65G G73A U80C | 0.09
28 | G33A U43C U49C A57C U60C U74A A75G | 0.07
29 | G33A U48A U49G G53A U72A U76A | 0.06
30 | G33A U48C U66C | 0.15
31 | G33A U48C U72C | 0.08
32 | G33A U49C A57U U66C U76A U80C | 0.05
33 | G33A U49C U67A U76A | 0.13
34 | G33A U49G A56G A65G U67A U78A | 0.05
35 | G33A U51C A56G U80C | 0.1
36 | G33A U51C A56U U58G U60A U76A | 0.05
37 | G33A U51C U67A | 0.07
38 | G33A U54A U69A | 0.49
39 | G33A U54C U67C U72C U76A | 0.05
40 | G33A U58C U60C | 0.11
41 | G33A U60C U76C U80A | 0.05
42 | G33A U60C U80A | 0.19
43 | G33A U60C U80C | 0.15
44 | G33A U60G U69C | 0.06
45 | G33A U69C U80C | 0.1
46 | G33A U72C C81A | 0.32
47 | G33A U80C C81U | 0.12
48 | G33C A35G U41C G63A U67C | 0.08

Row | Variant | self-cleavage
49 | G33C A35U U54C | 0.11
50 | G33C C40A A65G | 0.04
51 | G33C G55U U66C U72C A77G | 0.08
52 | G33C U41A G52U | 0.15
53 | G33C U41A U51A A57G | 0.09
54 | G33C U43A U49C A57U A75G A77G | 0.09
55 | G33C U43C A47U | 0.15
56 | G33C U43C U69A | 0.13
57 | G33C U49A U51A U67C | 0.14
58 | G33C U49C G53U A75G | 0.08
59 | G33C U51C U69C U76A U78C | 0.07
60 | G33C U54A U60G | 0.03
61 | G33C U60C U78C | 0.12
62 | G33U A35C U60A | 0.11
63 | G33U A35G A45G U54C | 0.14
64 | G33U A35G U54C A56C A64G | 0.1
65 | G33U A45G U48C A64G | 0.05
66 | G33U A45U G53A A56G U74C | 0.17
67 | G33U A47G U51A | 0.15
68 | G33U C39U U43A U72A | 0.1
69 | G33U G55U A64G U66C | 0.11
70 | G33U U41C U60A | 0.12
71 | G33U U43C U48C U49C U51G G61A U69A | 0.06
72 | G33U U49C U54C | 0.04

Row | Variant | self-cleavage
73 | G33U U51A A56U A64U | 0.11
74 | G33U U51C U72C | 0.15
75 | G33U U60C U66C | 0.12
76 | G33U U78C C79A | 0.09
77 | C34A A35G C40U | 0.28
78 | C34A A35G U66C U72A | 0.14
79 | C34A A35U U60C G61U | 0.17
80 | C34A A47G U66C | 0.16
81 | C34A A57G U76C | 0.54
82 | C34A A57U U66C U76C | 0.09
83 | C34A C40A A45G A57U U67A | 0.04
84 | C34A C40U U78C | 0.16
85 | C34A G36A U51C A64U U69C U78C | 0.13
86 | C34A G53A U67A U74C | 0.15
87 | C34A U41A A45G | 0.14
88 | C34A U41A G63A | 0.63
89 | C34A U43C A45G U49G U80A | 0.14
90 | C34A U43C U54C | 0.34
91 | C34A U48C C71U U80C | 0.14
92 | C34A U48C U51A U69C U72A | 0.1
93 | C34A U54C U72A | 0.18
94 | C34A U58C C68U | 0.12
95 | C34A U60C U76A | 0.16
96 | C34A U69C U74A A75G | 0.07

Row | Variant | self-cleavage
97 | C34G A56U U72C | 0.13
98 | C34G A64G U67G A77U | 0.08
99 | C34G C40A A64G U69A U76A U78C | 0.03
100 | C34G G42A A56U | 0.25
101 | C34G G52A U60C | 0.23
102 | C34G U43G U48C | 0.07
103 | C34G U49G A64G | 0.09
104 | C34G U49G U78A | 0.22
105 | C34G U67C U72C | 0.17
106 | C34G U69A U80C | 0.28
107 | C34U A35G U48C | 0.12
108 | C34U A35G U72C U78C | 0.39
109 | C34U A45G A64G A75U U80C | 0.11
110 | C34U A45U A65G | 0.13
111 | C34U A45U G61C U67C U76A | 0.08
112 | C34U A45U U54C A57G C62U U69A | 0.06
113 | C34U A47C U48C A64G U66C U72A A77U | 0.1
114 | C34U A56G U80C | 0.49
115 | C34U C39A A57C | 0.11
116 | C34U C40A U49C A57G U74C | 0.08
117 | C34U C40G U41A | 0.15
118 | C34U C40U A47G U69C | 0.08
119 | C34U C50U A57U | 0.11
120 | C34U G36A U60A U78C | 0.15

Row | Variant | self-cleavage
121 | C34U G63A A77G U80C | 0.14
122 | C34U U43A U66A U78C | 0.24
123 | C34U U43C U78C | 0.1
124 | C34U U48C U66C A77U | 0.16
125 | C34U U49A U66C | 0.13
126 | C34U U51A A56G | 0.16
127 | C34U U51A A75U | 0.45
128 | C34U U51C U54A U72C | 0.29
129 | C34U U51C U80C | 0.46
130 | C34U U54C U66C | 0.15
131 | C34U U54G C79U | 0.32
132 | C34U U60C A64G | 0.35
133 | A35C A45G U54C A75U | 0.54
134 | A35C A45G U72A | 0.34
135 | A35C A45U U60C U66C | 0.1
136 | A35C A47G G53U | 0.81
137 | A35C A56U U69C | 0.48
138 | A35C A57G U76C A77G | 0.96
139 | A35C A65G A75G U76C | 0.19
140 | A35C C40U G73A A75G | 1.29
141 | A35C C44A U58C U67C | 0.08
142 | A35C U41C G61A U72C | 0.71
143 | A35C U41C U51A A64U | 0.17
144 | A35C U41C U72C U80C | 1.18

Row | Variant | self-cleavage
145 | A35C U41C U78A | 1.1
146 | A35C U49A A56G | 0.34
147 | A35C U49A U58A | 0.17
148 | A35C U51C U58A A64U U69C U72A | 0.2
149 | A35C U51C U72C | 1.09
150 | A35C U54C A65C | 0.18
151 | A35C U58A A64U | 0.18
152 | A35C U66C U72C U80C | 0.35
153 | A35C U67C A75U | 0.13
154 | A35C U69G U76C | 0.51
155 | A35C U72C U78C | 1.17
156 | A35G A45C A57G | 0.94
157 | A35G A45C U72C | 0.97
158 | A35G A45G A47U U51C U54A U74A | 1.13
159 | A35G A45G A56G | 1.25
160 | A35G A45G A56U | 1.07
161 | A35G A45G A57G | 1.22
162 | A35G A45G A64U C71A U72G | 0.56
163 | A35G A45G A75G | 1.25
164 | A35G A45G C59U U78C | 1.27
165 | A35G A45G U48A G73C U76C U80C | 1.28
166 | A35G A45G U51C U69C U74C A75U | 0.86
167 | A35G A45G U51C U76A | 1.22
